Measured values from the BET-seq Pho4 binding data (Le et al. 2018).
The other results are listed elsewhere or left out. The energies were worked out here from pooled read counts, against the library average; single values are noisy.

Target: T1, Pho4 (S. cerevisiae) (UniProt P07270)
T1 sequence: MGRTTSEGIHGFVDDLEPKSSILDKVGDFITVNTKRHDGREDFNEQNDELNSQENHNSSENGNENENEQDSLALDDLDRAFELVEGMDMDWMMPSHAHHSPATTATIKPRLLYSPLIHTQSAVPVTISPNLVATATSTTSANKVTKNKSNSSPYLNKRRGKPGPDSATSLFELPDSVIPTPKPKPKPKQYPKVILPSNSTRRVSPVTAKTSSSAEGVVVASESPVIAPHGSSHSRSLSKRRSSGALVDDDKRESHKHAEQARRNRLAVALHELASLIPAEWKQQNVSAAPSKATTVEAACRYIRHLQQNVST
Experiment: relative binding free energy (BET-seq); higher = weaker binding
Settings: reference: library average

Sequence | relative binding free energy [kcal/mol]
TTGTACACGTGCGGCG | 0.04
TTAGCCACGTGTGGGC | 0.07
AAGTTCACGTGAGTAA | 0.36
AGAGCCACGTGGTTAG | 0.04
GTTTTCACGTGGTCGG | 0.24
GTGTACACGTGTGATG | 0.21
GTGCGCACGTGGGTCG | -0.15
CGGGGCACGTGTGATT | 0.05
GAGAGCACGTGGGTAG | -0.06
CGATGCACGTGGCGGT | -0.15
TTGTGCACGTGAGTGC | 0.27
GATGTCACGTGTGGGA | 0.25
TGGATCACGTGCTGGT | 0.14
AGAGTCACGTGAGCGG | 0.35
AAAGGCACGTGGGTGC | -0.33
CGTTGCACGTGTATGA | 0.06
TTATGCACGTGAGAAT | 0.25
GTGAGCACGTGAGCGT | -0.07
ATTGGCACGTGTAGCA | -0.06
TGAGACACGTGACTGG | 0.26
CGGGTCACGTGGTCAT | 0.08
GGTAGCACGTGGACAT | 0.02
TGGCGCACGTGTTGTT | -0.04
TTAGACACGTGGAGTG | -0.02
GGTATCACGTGGTTCA | 0.14
GTGATCACGTGAGTGG | 0.23

Sequence | relative binding free energy [kcal/mol]
GGTTGCACGTGCGAGA | 0.08
GGTGGCACGTGCGATG | 0
AATCGCACGTGGTGTT | -0.07
GGTGGCACGTGAAAGC | 0.22
AAATTCACGTGTTGGA | 0.17
CATGGCACGTGGGGTC | -0.21
GGTGTCACGTGCTGGT | 0.15
GGTAGCACGTGGATCG | 0.11
AGCGACACGTGAAGGT | 0.31
TTCGCCACGTGGGGCG | -0.14
TATTACACGTGTTATC | 0.21
GGGTGCACGTGTTCGG | 0.1
AATATCACGTGGGACT | 0.17
ATGTACACGTGTCTGT | 0.09
ATGAGCACGTGTGTTT | -0.09
GATGTCACGTGGGTGG | 0.01
TTGGACACGTGGACAT | 0.08
TCTGGCACGTGCTTGG | -0.11
TAGGTCACGTGGGAGG | 0.04
GTTTTCACGTGAGTCG | 0.28
GTGTTCACGTGCGTGT | 0.3
GTAATCACGTGTGAAT | 0.06
GAGAACACGTGGTTTT | 0.11
GTAAGCACGTGGGGGG | -0.17
TATGTCACGTGAACTT | 0.29
CTAAGCACGTGTGGGT | 0

Sequence | relative binding free energy [kcal/mol]
CGTTGCACGTGTAAGG | 0.12
GATGCCACGTGGAGGT | -0.06
AGTGCCACGTGAGTGT | 0.1
TCTGTCACGTGTTTCT | 0.1
GTGTACACGTGGTACT | 0.07
TGATCCACGTGTTTGT | 0.08
TTAAGCACGTGGTGGC | -0.1
TCTTTCACGTGTCGGG | 0.3
TGAAGCACGTGATTTT | 0.09
TATTTCACGTGTTGAG | 0.32
GGCGCCACGTGGTGTA | -0.04
GGGGGCACGTGGCCGC | -0.27
TTTCACACGTGAAGTG | 0.23
GGGCTCACGTGAGGGT | 0.44
TGGTTCACGTGGGAAG | 0.21
GGTAACACGTGGATAT | 0.17
AATATCACGTGGGTTC | 0.05
GCAGTCACGTGGGCTG | 0.09
ATCGGCACGTGTCATG | 0.03
AATAGCACGTGGTGGG | -0.2
GAATTCACGTGTTTTC | 0.42
TGTTGCACGTGGATCG | -0.02
AATGGCACGTGGCTTA | -0.08
GGGTGCACGTGTAACA | 0.11
TTGATCACGTGTGTTC | 0.18
GGGTACACGTGGGATC | -0.02

Sequence | relative binding free energy [kcal/mol]
ATGGCCACGTGCAGGT | -0.16
GTGTACACGTGTAGAG | 0.06
GGAGCCACGTGACGGG | 0.06
GGTTTCACGTGGATTG | 0.35
CTTAGCACGTGTTGTG | -0.12
AGAGACACGTGAGGTG | 0.2
CGTGACACGTGGGGCT | -0.15
TTTTGCACGTGCAAGG | -0.1
TAGAACACGTGTTGGC | 0.02
TTGGCCACGTGTAGTA | -0.03
TTTGACACGTGGTAAG | -0.07
GGAGTCACGTGGAGAA | 0.2
CAATGCACGTGTGGAG | 0.06
TATGTCACGTGCTGGT | 0.03
GTAGACACGTGGGATA | -0.09
TTAACCACGTGTGGGT | 0.01
TGGTTCACGTGTCTGT | 0.26
GGAGGCACGTGAGCAT | 0.14
ATTAACACGTGTGGGG | 0.02
CTGTTCACGTGTAGTA | 0.36
TTCAGCACGTGCGGTT | -0.11
TTAACCACGTGGGTTA | -0.22
GTATGCACGTGTCTTT | -0.07
ATCGTCACGTGGATTT | 0.18
AGGTGCACGTGGAGGC | -0.12
TCAGGCACGTGTACGG | 0.09

Sequence | relative binding free energy [kcal/mol]
TGTGTCACGTGTGCGA | -0.06
AAGTGCACGTGGATGT | -0.12
GAAGTCACGTGGTGAG | 0.19
GTAGTCACGTGTGGAG | 0.14
TCTTTCACGTGAGGAT | 0.35
TGCGTCACGTGATTGA | 0.11
TGCCGCACGTGGTGGA | -0.14
CTCTTCACGTGGGTGA | 0.32
GGTTGCACGTGAGTTC | 0.31
TACGTCACGTGTCGGG | 0.1
CTGTGCACGTGCTGTG | -0.19
ATTTACACGTGAAGCT | 0.24
GAATGCACGTGCAGGG | 0
GTTTGCACGTGAGGAG | 0.27
GGTTGCACGTGGGCGC | -0.02
GGGTCCACGTGTTTGG | 0.15
GGGTTCACGTGAGGAC | 0.56
TGTATCACGTGCGGTT | 0.08
CATATCACGTGGTTAT | 0.1
TGTTACACGTGTGTTT | 0.17
ATTGTCACGTGTGCCG | 0.13
GAAGTCACGTGGTGTC | 0.11
CGTTTCACGTGACGGG | 0.18
GGGTTCACGTGAAATA | 0.34
TATGTCACGTGAAGTT | 0.28
TTTTGCACGTGGCTAT | -0.19

Sequence | relative binding free energy [kcal/mol]
TTAGACACGTGATGAG | 0.08
GTGCACACGTGTTTGG | 0.14
TGGAACACGTGGTCAG | -0.01
AGGTGCACGTGGAATT | 0.03
CGTGACACGTGGGAAG | -0.09
ATTTGCACGTGATTTG | 0.03
TTAAGCACGTGTGTTT | -0.09
ATGTGCACGTGAAGAG | 0.24
GGTAGCACGTGTTAAA | 0.04
GGAAGCACGTGCAGTG | 0
CTTTGCACGTGAGGAG | 0.26
GCGTTCACGTGGAGGA | 0.24
ATTGGCACGTGGTAGC | -0.21
CTTATCACGTGGCTTT | 0.18
CTTTTCACGTGGTCTT | 0.21
CCGCGCACGTGGGTGG | -0.19
ATGTGCACGTGTACGG | -0.13
TGCTACACGTGGTTGG | 0.12
TGTTGCACGTGCTTGT | -0.16
TCGGACACGTGGTAGA | 0.09
ACGGCCACGTGGTGTA | -0.14
CGTGACACGTGTCAGG | 0.07
ATTTACACGTGGTAGT | -0.02
ATTTTCACGTGTGGTT | 0.26
CGGGGCACGTGCTTTT | -0.13
ATCGGCACGTGTGCTT | 0.02

Sequence | relative binding free energy [kcal/mol]
TTCAGCACGTGTTTTA | -0.06
TATGACACGTGCTTTT | 0.09
AATTTCACGTGGTATT | 0.21
GGCGGCACGTGTTAGA | 0.04
CTGTACACGTGTCTGT | 0.15
TGGATCACGTGTTACT | 0.15
TGTTACACGTGAGATG | 0.27
GTTAGCACGTGCGGTC | 0.03
TAGCACACGTGGGGGC | -0.03
ATGGACACGTGTGTTG | 0.1
GGAACCACGTGGATGG | 0.11
AGGTGCACGTGCGGTG | -0.07
TTTATCACGTGGCAGT | 0.07
TGGAGCACGTGTCGGC | -0.14
ACGGCCACGTGCGGGG | -0.17
TGTCTCACGTGATTAG | 0.21
ATTTGCACGTGCAATG | 0.08
TGTTGCACGTGAGCTT | 0.08
GTCGTCACGTGGGGCG | -0.12
ATTGGCACGTGAGTGA | -0.01
GCTGGCACGTGTAGTG | 0.03
GAGGACACGTGCGTGT | -0.12
TGAATCACGTGAAAGG | 0.55
TTTGACACGTGGGCCG | 0.03
AGTGTCACGTGTGTAA | -0.07
TGTTGCACGTGATCTG | 0.12

Sequence | relative binding free energy [kcal/mol]
AGTTCCACGTGAGAGG | 0.33
GGAGTCACGTGGTAAG | -0.01
GAGGTCACGTGGTGGA | 0.18
TTGAGCACGTGGAGTC | -0.07
AGTTTCACGTGAGCTT | 0.26
ATCTACACGTGGTGGG | 0.03
CGGGTCACGTGAATGG | 0.29
ACAGTCACGTGGGAGG | -0.17
TGATGCACGTGTGTTA | 0.02
GGTTTCACGTGCAGGG | 0.38
TTGGACACGTGGTAAC | 0.05
TAGGTCACGTGAAGAA | 0.41
ATCTGCACGTGCGGTT | -0.13
TGGGACACGTGCAGGT | -0.08
GTCAGCACGTGAGGTG | 0.21
TTTGGCACGTGTTAAA | -0.02
CAGGTCACGTGGGTAA | -0.03
AGGTGCACGTGGTCTA | -0.26
TTGAGCACGTGGATCG | 0.1
TTCTACACGTGTAAGT | 0.14
GACGGCACGTGTAGGG | -0.02
TGTGGCACGTGTATGT | -0.01
AACTGCACGTGGGTGG | -0.24
TCGTTCACGTGGACGT | 0.24
CTGTACACGTGTTGGG | 0.14
AGTAGCACGTGTTTAG | -0.11

Sequence | relative binding free energy [kcal/mol]
TTTGTCACGTGCTATA | -0.17
CTTGTCACGTGGGATG | 0.05
TAAGTCACGTGCATGG | -0.01
AAAGACACGTGGGAGG | -0.03
TTGAGCACGTGCAGGT | -0.15
CTTCTCACGTGTTGTG | 0.04
ACCGGCACGTGGTGTT | -0.02
GGGATCACGTGAGATA | 0.41
GAGTTCACGTGGAGCT | 0.35
TAGTACACGTGGCAGT | -0.01
CGTGTCACGTGCGGTA | 0.11
GTTCTCACGTGGATGG | 0.19
CTGGGCACGTGGTAAA | -0.18
TCTTTCACGTGATCGA | 0.38
GTATTCACGTGTAAGC | 0.31
CGCCTCACGTGGTGGG | 0
GGATGCACGTGATTCG | 0.12
TTTTCCACGTGTTCTT | 0.2
CTTAGCACGTGGTTAG | -0.12
TCTGTCACGTGACTGG | 0.25
CGATTCACGTGAGTTG | 0.36
TGGTCCACGTGTGTGC | 0.18
